Measured values taken from paper PMC4336329 (PLoS ONE, 2015).
The campaign covered roughly 310,000 compounds. About 2,200 (0.71%) showed an effect of 50% or more. Effects have a minus sign here. The list shows a part of the results.

Target: human ether-à-go-go-related gene (hERG) potassium channel (human, UniProt Q12809)
Assay: primary screen, population patch clamp on CHO cells stably expressing hERG

Sequence of human ether-à-go-go-related gene (hERG) potassium channel (Q12809 whole entry, looked up): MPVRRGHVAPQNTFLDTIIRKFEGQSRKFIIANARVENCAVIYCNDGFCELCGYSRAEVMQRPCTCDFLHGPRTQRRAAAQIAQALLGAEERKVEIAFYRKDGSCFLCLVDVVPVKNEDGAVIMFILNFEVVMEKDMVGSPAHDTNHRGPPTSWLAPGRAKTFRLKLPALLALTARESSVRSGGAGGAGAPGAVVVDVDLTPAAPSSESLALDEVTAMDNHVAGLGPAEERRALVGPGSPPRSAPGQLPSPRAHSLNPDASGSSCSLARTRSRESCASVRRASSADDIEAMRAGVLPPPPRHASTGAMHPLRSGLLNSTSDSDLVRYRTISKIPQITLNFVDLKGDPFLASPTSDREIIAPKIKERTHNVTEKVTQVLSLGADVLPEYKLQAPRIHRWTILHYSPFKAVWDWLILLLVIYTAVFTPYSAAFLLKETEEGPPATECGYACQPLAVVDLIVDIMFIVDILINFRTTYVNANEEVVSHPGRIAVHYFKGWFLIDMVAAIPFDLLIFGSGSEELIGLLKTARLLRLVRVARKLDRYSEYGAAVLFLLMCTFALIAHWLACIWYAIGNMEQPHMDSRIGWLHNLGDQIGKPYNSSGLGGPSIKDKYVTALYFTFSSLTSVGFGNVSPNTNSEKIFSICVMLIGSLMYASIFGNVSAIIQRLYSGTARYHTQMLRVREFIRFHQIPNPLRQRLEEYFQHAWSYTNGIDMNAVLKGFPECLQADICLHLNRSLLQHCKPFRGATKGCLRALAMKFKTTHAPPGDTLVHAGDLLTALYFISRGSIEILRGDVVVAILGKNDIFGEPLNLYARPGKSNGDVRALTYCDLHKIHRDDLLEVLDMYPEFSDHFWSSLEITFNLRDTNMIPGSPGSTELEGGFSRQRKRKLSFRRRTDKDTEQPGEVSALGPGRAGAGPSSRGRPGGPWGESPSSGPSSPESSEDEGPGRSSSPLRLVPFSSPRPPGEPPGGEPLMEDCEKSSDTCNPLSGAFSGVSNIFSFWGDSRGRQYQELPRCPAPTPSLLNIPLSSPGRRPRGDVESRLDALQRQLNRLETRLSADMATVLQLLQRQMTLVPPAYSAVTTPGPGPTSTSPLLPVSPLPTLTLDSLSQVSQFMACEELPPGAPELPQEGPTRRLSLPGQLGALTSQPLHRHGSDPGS

Row | Compound | hERG current change (%, negative = inhibition) at 1uM [%]
1 | Cc1cccc(N2CCN(S(=O)(=O)c3ccc4[nH]c(=O)c(=O)[nH]c4c3)CC2C)c1 (stereo not shown) | 8.7
2 | COCCNC(=O)c1cn(C)c2ccc(S(=O)(=O)N(C)C3CCCCC3)cc2c1=O | -3.35
3 | CC(=O)C1=C(O)C(=O)N(c2cc(C(C)(C)C)on2)C1c1ccc(Br)cc1 (stereo not shown) | -8.41
4 | CCOC(=O)C1CCN(C(=O)COc2ccc3c(C)cc(=O)oc3c2)CC1 | 2.94
5 | O=[N+]([O-])c1cccc(-c2nnc(C3CC3)o2)c1 | 11.1
6 | CSc1nccc(Oc2cccc(C#N)c2)n1 | 0.976
7 | Cc1cc(NC(=O)c2ccccc2)ccc1NC(=O)c1ccccc1Cl | 14.4
8 | CC(C)(C)c1cc(N/C=C\c2nnnn2-c2ccc(Br)cc2)no1 | 8.57
9 | CN(C)c1ccc(-c2c(-c3ccc4c(c3)OCO4)noc2-c2ccsc2)cn1 | 5.04
10 | CCCCCc1nnc(N)s1 | 0.903
11 | Cc1nc(Cc2nnc(SCc3nc(N)nc(Nc4ccccc4C)n3)o2)cs1 | 6.84
12 | Cc1cc(C)n2c(SC(C)C(=O)NC3(C#N)CCCCC3)nnc2n1 (stereo not shown) | 11.7
13 | COCCCNC(=O)c1oc2ccc(S(=O)(=O)N(C)C3CCCCC3)cc2c1C | 9.2
14 | CCOc1ccccc1NC(=O)CCCc1ccc(OC)c(C)c1 | 7.44
15 | COc1cccc(OCC(=O)Nc2ccccc2C(N)=O)c1 | 15.2
16 | CCOC(=O)N1CCC(NC(=O)CSc2cc(=O)n(CC)c3ccccc23)CC1 | 8.59
17 | CCOc1ccc(C(C)C)cc1S(=O)(=O)N1CCOCC1 | 7.34
18 | COc1cccc(NC(=S)N2CCN(Cc3ccccc3)CC2)c1 | 2.73
19 | O=C(Nc1ccccc1)N1CCC(C(=O)N2CCCC(C(F)(F)F)C2)CC1 (stereo not shown) | 7.58
20 | CCn1c(Cc2ccccc2)nnc1SCC(=O)Nc1nc(C)cs1 | 9.82

Row | Compound | hERG current change (%, negative = inhibition) at 1uM [%]
21 | COc1ccccc1NC(=O)CCC(=O)N/N=C(/C)c1ccc(C)cc1 | 12
22 | O=C(c1cccs1)N(CCN1CCCCC1)CC1CCCN(C2CCCC2)C1 (stereo not shown) | 13.1
23 | N#CCCN(C(=O)COC(=O)Cc1c[nH]c2ccccc12)c1ccccc1 | 11.6
24 | O=C(CN1C(=O)CSCC1=O)Nc1ccc2c(c1)OCO2 | 13.3
25 | CCOC(=O)c1c(NC(=O)C2C3C=CC(CC3)C2C(=O)O)sc(C)c1C (stereo not shown) | 8.22
26 | Cc1ccc(/C(N)=N/OC(=O)c2cc(-c3ccccc3)nc3ccccc23)cc1 | 8.25
27 | O=C(Nc1ccc(CN2CCOCC2)cc1)c1ccc(Cl)cc1 | 9.22
28 | Cc1cc(C)n2nc3ccccc3c2n1 | 14.4
29 | COC(=O)CC/C(O)=C1\C(=O)CC(C)(C)CC1=NCc1nc2ccccc2[nH]1 | 5.35
30 | CC(C)CC(Nc1ncnc2scc(-c3ccccc3)c12)C(=O)O (stereo not shown) | 2.98
31 | CN(c1cccc(Cl)c1)S(=O)(=O)c1cccc(C(=O)NCc2ccncc2)c1 | 6.13
32 | CC1CCN(CCCNC(=O)Cn2ncc3c([nH]c4ccccc43)c2=O)CC1 | 11.9
33 | O=C(N/N=C/c1c(O)n(-c2ccccc2)c(=S)[nH]c1=O)c1ccccc1 | 10.3
34 | CC(=O)NCCOC(=O)Nc1cccnc1 | 10.7
35 | Cc1ccc(-n2c(C)nnc2SCC(=O)NC2CCCC2)cc1 | 8.16
36 | COc1ccc(NC(=O)CC2CCCCC2)cc1OC | 3.22
37 | CCN(C(=O)CSc1nnc(C(C)N(C)C)n1-c1ccc(F)cc1)C1CCS(=O)(=O)C1 (stereo not shown) | 11.5
38 | COc1cc(S(=O)(=O)N2CCCCC2)c(OC)cc1Br | 7.03
39 | O=C1CCC([N+](=O)[O-])C(c2cccc([N+](=O)[O-])c2)N1 (stereo not shown) | 9.34
40 | CCCc1cc(=O)[nH]c(SCC(=O)Nc2nonc2C)n1 | 7.85

Row | Compound | hERG current change (%, negative = inhibition) at 1uM [%]
41 | CC(C)C(=O)N1CCN(c2ccccc2NC(=S)NC(=O)c2cccs2)CC1 | 0.0725
42 | Cc1cccnc1NC(=O)c1ccc(Cl)c(S(=O)(=O)N2CCCCCC2)c1 | -10.1
43 | CC(=O)c1sc(NC(=O)CN2C(=O)C3CCCCC3C2=O)nc1-c1ccccc1 (stereo not shown) | 1.37
44 | Cc1cc(Cl)ccc1OCc1cn2cccnc2n1 | 2.09
45 | Cc1nnc(NC(=O)CSc2nnc(C(C)NC(=O)c3ccccc3F)n2C)s1 (stereo not shown) | 14.6
46 | Cc1nc(-c2ccccc2)sc1C(=O)/C=C/c1ccc(Cl)cc1 | 13.9
47 | Cc1nc2ccc(S(=O)(=O)NCC(=O)N3CCc4ccccc43)cc2s1 | 13.3
48 | O=C(NCc1ccccc1CN1CCCC1)C1CCN(C(=O)c2ccc(F)cc2)CC1 | 3.5
49 | COc1ccc(NC(=O)CN(c2cccc(C(F)(F)F)c2)S(C)(=O)=O)cc1OC | 9.53
50 | O=C(N/N=C/c1cccc(O)c1)c1ccccc1O | 10.6
51 | Oc1c(C=Nc2ccccc2)sc2ccccc12 | 12.4
52 | COc1ccc(NS(=O)(=O)c2cc(OC)ccc2OC)cc1 | 11.8
53 | COc1ccccc1C(=O)NCCNc1nc2cc(C)cc(C)c2cc1C#N | 19.5
54 | COc1ccc(-c2nc(NC(=O)Cn3c(=O)oc4ccccc43)sc2C)cc1 | 9.56
55 | Cc1nc(SCC(=O)Nc2ccnc3ccccc23)n[nH]1 | -1.23
56 | CCc1cc(C(=O)N2CCCC(C(=O)c3cccc4ccccc34)C2)n(C)n1 (stereo not shown) | 11.7
57 | COc1cccc2c1-c1c(O)cccc1C2=O | 10.2
58 | Cc1ccc(CNC(=O)CCc2nnc3ccc(NCCCN4CCCC4=O)nn23)cc1 | 9.85
